# The source gives no read counts; variants with many changes may rest on few reads.
# B1: LINE1-full (parent)
# chain: UACGUAGGUGGUUUUCCCCUGAUAGUGCUAAGGGGGCCUGGAAGUUUGGACUGGGCAGAGCUCAACACAGCGUGGCAAAGUGGCUGUGGCUAGACUGCCUCUCUGGAUUCCUCGUCACUCAGCAGGGCAUCUCUGAGAGAAAUGCC
# Variants of: B1
# Assay: self-cleavage, relative activity (ratio to wild type); higher = more cleavage; in vitro, sequencing; the parent is a self-cleaving ribozyme
row,Variant,self-cleavage
1,U39A U46A U108C,1.55
2,G55U A65G U102A,0.02
3,U15C A69C C76U U100A,0.02
4,C19U C84U U104G A138C,0.3
5,U12C U14C A57G U62C,0
6,U20C A129G U132C,0.75
7,A42U U100A U130A,1.27
8,U15G U39C A67G,0
9,U9A U104A A117U A121U,1.38
10,A30G A42G A43G A121C,1.45
11,U13C G137A A141G A142G,1.33
12,U47C U62C U87A,0.06
13,A42G U46C U119A A136U,1.41
14,A65G A67G U96A,0
15,U13C A43G U47C A136G,0.33
16,U14C U26A U104G A141C,0.39
17,U13C U23C U134A,1.11
18,A129U U134C A136U,1.39
19,U20A G32A U46A G54A U96C A129G A140G,0.01
20,U14C C16U A57G A94G,0.84
21,U5C A57G G74C C120U A140U,0.81

row,Variant,self-cleavage
1,U29C G106A A117G,1.63
2,G49U C66U U87C,0.01
3,U15C U108A A121G,1.31
4,U14C U45C A67G A78G,0
5,U1C U14A U100C,0
6,U87C A94U U130C,0.17
7,A79G U81C A117U,1.45
8,U20C A78G A124U A129G,1.15
9,U9A A30G A65G U134C,0
10,A42G U47C U108C,2.22
11,U1C A24U U39C A59U A69U,0.13
12,U13C U39C U46C U85A,0.17
13,U14C G34U U52A A141G,1.6
14,A31C U39C U109C U130C,1.15
15,U91C U109C A129U,0.34
16,U45A U52A A124U A140G,1.41
17,U12C U46C A107G,1.2
18,U1C A22G C131U,0.49
19,C28U U52A U96A U104C U108C C116A,0.1
20,A24G U87C A136G,0
21,U13A A57G A69U C71U,0.01

row,Variant,self-cleavage
1,C3U U15A U73A,0.37
2,A78G A107G C146A,1.79
3,A31G U47A U130C,0.95
4,A31G A92U U112C A129G U143A,0.94
5,U12C U15A A22G,1.06
6,C3U U13G U46C C51A A67G,0
7,U29C A50G A67U,0.23
8,U13C G32A U112C,1.45
9,U13A G27A A78U,1.02
10,U14C U23C C37G A94G G106A A138G,0.5
11,U26C A78G A136G,1.31
12,U1G G60A C76U,0.12
13,A50G A77U G82U A94G,0.12
14,A31U G54A U100C,0.5
15,A22G G55A A78G U102C A107U,0.31
16,U45C U52A A117G,1.86
17,A69G A77U U96A U134C,0.09
18,U39C A59G A78G A141G,0.1
19,A50G A64G A136G,0
20,U102C U104C G114A,0.63
21,A22G U39A U73A C103U U130A,1.88

row,Variant,self-cleavage
1,U20C U52C C66U A67G U104C,0.24
2,G8C A22G A78G,0.9
3,G36A G55A A64U A65G U96C A142G,0.02
4,A79G C120U A138G,1.59
5,A6G A79U A140U,0.89
6,U85C C99U U104C,0.17
7,U12C U45G A50U A57C,0.18
8,U13C G48A U62C A79U C98U,0.06
9,A65G U87A U119C,0.03
10,U5C A67G U96A,0
11,G25A U39A U47C A138G,1.41
12,U5C U39A A79G,0.89
13,U39A U81A U91C,0.38
14,U20A U87C U132C,0
15,U13C A24G U47C,0.57
16,C19U A50G U132C U143C,0.84
17,G97A U102C A140U U143C,0.11
18,U14C G32C A42G U47C U115A A117G,0
19,U1C A30G U47A,0.97
20,U9C A42G C51U U112C A141U,1.83

# Reference: the RNAGym collection of RNA variant scans (doi:10.7554/elife.90254)
